Assay results published in the RNAGym collection of RNA variant scans (doi:10.1073/pnas.2313332121).
Variants at the background level are over-represented here.

B1: TPR 5TU (parent)
chain: GGAUCUUCUCGAUCUAACAAAAAAGACAAAUCUGCCACAAAGCUUGAGAGCAUCUUCGGAUGCAGAGGCGGCAGCCUUCGGUGGCGCGAUAGCGCCAACGUUCUCAACUAUGACACGCAAAACGCGUGCUCCGUUGAAUGGAGUUUAUCAUG

Variants of: B1
Experiment: polymerase ribozyme fitness, log enrichment relative to wild type (log ratio); higher = more active; in vitro selection for triplet polymerase activity
Method in brief: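 Mutant libraries of both subunits of a heterodimeric triplet polymerase ribozyme were PCR-built, transcribed, and selected once in triplicate, with frozen incubation at −7 °C and capture of gel-excised extended constructs on streptavidin beads before RT-PCR. Illumina sequencing of input and output libraries was filtered to genotypes with ≥10 input reads and ≥1 read per output. Fitness is the logarithm of genotype enrichment over wild-type enrichment, using inverse-variance-weighted replicate averages. The logarithm is base 2.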

Variant	polymerase ribozyme fitness (log ratio)
GGAUCUUCUCGAUCUAACAAAAAAGACAAAUCUGCCGCAAAGCUUGAGAGCAUAUUCGGAUGCAGAGGCGGCAGCCUUCGGUGGCGCGAUAGGGCCAACGUUCUCAACUAUGACACGCAAAACGCGUGCUCCGUUGAAUGGCGUUUUUCAUG [A37G C54A C93G A142C A147U]	≤ -4.2
GGAUCUUCUCGAUCUAACAAAAAAGACAAAUCUGCCGCAAAGCUUGAGAGCAUCUUCGGAUGCAGAGGCGGCAGCCUUCGGUGGCGCGAUAGCGCCAACGUUCUCAACUAUGACACGCAAAAUGCGUGCUCCGUUGAAUGGAGUUUAUCAUG [A37G C123U]	-1.8
GGAUCUUCUCGAUCUAACAAAAAAGACAAAUCUGCCGCAAAGCUUGAGAGCAUCUUCGGGUGCAGAGGCGGCAGCAUUCGGUGGCGCGAUAGUGCCAACGUUCUCAACUAUGACACGCCAAACGCGUGCUCCGUUCAAUGGAGUUUAUCAUG [A37G A60G C76A C93U A119C G136C]	≤ -4.2
GGAUCUUCUCGAUCUAACAAAAAAGACAAAUCUGCCGCAAACCUUGAGAGCAUCUUCGGAUGCAGAGGUGGCAGCCUUCGGUGGCGCGAUAGCGCUAACGUUCUCAACUAUGACACGCAAAACACGUGCUCCAUUGAAUGGAGUUUAUCAUG [A37G G42C C69U C96U G124A G133A]	≤ -4.2
GGAUCUUCUCGAUCUAACAAAAAAGACAAAUCUGCCGCAAAGCUUGAGAGCCUCUUCGGAUGCAGAGGCGGCAGCCUUCGGUGGCGCGAUUGCGCCGACGUCCUCAACUAUGACACGCAAAACGCGUGCUCCGUCGAAUGGAGUUUAUCAUG [A37G A52C A91U A97G U102C U135C]	≤ -4.2
GGAUCUUCUCGAUCUAACAAAAAAGACAAAUCUGCCGCAAAGCUUGAGAGCGUCUUCGGAUGCAGAGGCGGCAGCCUUCGGUGGCGCGAUAGCGGCAACGUUCUCAACUAUGACACGCAAAACGCGCGCUCCGUUGAAUGGAGUUUAUCAUG [A37G A52G C95G U127C]	≤ -4.2
GGAUCUUCUCGAUCUAACAAAAAAGACAAAUCUGCCGCAAAGCUUGAGAGCAUCUUCGGAUGCAGAGGCGGCAGCCUUCGGUGGCGCGAUAGGGCCCACGUUCUCAACUAUGACAAGCAAAACGCGUGCUCCGUUGAAUGGAGUUUAUCAUG [A37G C93G A97C C116A]	≤ -4.2
GGAUCUUCUCGAUCUAACAAAAAAGACAAAUCUGCCGCAAAGCUUGAGUGCAUCUUCGACUGCAGAGGCGGCAGCCUUCGGUGGCGCGAUAGCGACAACGUUCUCAACUAUGACACGCAAAACGCGUGCUCCGUUGAAUGGAGUUUAUCAUG [A37G A49U G59A A60C C95A]	≤ -4.2
GGAUCUUCUCGAUCUAACAAAAAAGACAAAUCUGCCGCAAAGCUUGAGAGCAUCUUCGGUUGCAGAGGCGGCAGCCUUCGAUGGCGCGAUAGCGCCCACGUUCUCAACUAUGACACGCAAAACGCGUGCUCCGUUGGAUGGAGUUUAUCAUG [A37G A60U G81A A97C A137G]	-4.19
GGAUCUUCUCGAUCUAACAAAAAAGACAAAUCUGCCGCAAAGCUUGAGAGCAUCUUCGGAUGCAGAGGCAGAAGCCUUCGGUGGCGCGAUAACGCCAACGUUCUCAACAAUGACGCGCAAAACGCGUGCUCCGUUGAAUGGAGUUUAUCAUG [A37G G70A C72A G92A U109A A115G]	≤ -4.2
GGAUCUUCUCGAUCUAACAAAAAAGACAAAUCUGCCGCAAAGCUUGAGAGCAUUUUCGCAUGCAGAGGUGGCAGCCUUCGGUGGCGCGAUAGCGCCAACGUUCUCAACUAUGACACGCAAAACGCGUGCUCCGUUGAAUGGAGUUUAUCAUG [A37G C54U G59C C69U]	-1.86
GGAUCUUCUCGAUCUAACAAAAAAGACAAAUCUGCCGCAAAGCUUAAGAGCAUCUUCGGAUGCAGAGGCGGCAGCCUUCGGUCGCGCGAUAGCGCCAACGUUCUCAACUAUGACACGCAAAACGCGCGCUCCGGUGAAUGGAGUUUAUCAUG [A37G G46A G83C U127C U134G]	≤ -4.2
GGAUCUUCUCGAUCUAACAAAAAAGACAAAUCUGCCGCAAAGCUUGAGAGCAUCUUCGGCUGCAGAGGCGGAAGCCUUCGGUGGCGCGAUAGCGUCAACGUUCUCAACUAUGACACGCAGAACGCCUGCUCCGUUGAAUGGAGUUUAUCAUG [A37G A60C C72A C95U A120G G126C]	≤ -4.2
GGAUCUUCUCGAUCUAACAAAAAAGACAAAUCUGCCGCAAAGCUUGAGUGCAUCUUCGGAUGCAGAGGCGGCAGCCUUAGGUGGCGCGAUAGCGCCAAUGUUCUCAACUAUGACACGCAAAACACGUGCUCCGUUGAAUGGUGUUUAUCAUG [A37G A49U C79A C99U G124A A142U]	≤ -4.2
GGAUCUUCUCGAUCUAACAAAAAAGACAAAUCUGCCGCAAAGCUUGAGAGCAUCUUCGGAUGCAGAGGCGGCAGCCUUCGGUGGCGCGAUAGCGUCAACGUUCUCAACUAUGACACGCAAAACGCGUGCGCCGUUGAAUGGAGCUUAUCAUG [A37G C95U U130G U144C]	≤ -4.2
GGAUCUUCUCGAUCUAACAAAAAAGACAAAUCUGCCGCAAAGCUUGAGAGCGUCUUCGGAUGCAGAGGCGGCAGCCUUCGGUGACGCGAUAGUGCCAACGUUCUCAACUAUGACACGCAAAACGCGGGCUCCGUUGAAUGGAGUUCAUCAUG [A37G A52G G84A C93U U127G U146C]	≤ -4.2
GGAUCUUCUCGAUCUAACAAAAAAGACAAAUCUGCCGCAAAGCUUGAGCGCAUCUUCGGAUGCAGAGGCGGCUGCCUUCGAUGGCACGAUAGCGCCAACGUUCUCAACUAUGACACGCAAAACGCGUGCUCCGUUGAAUAGAGUUUAUCAUG [A37G A49C A73U G81A G86A G140A]	≤ -4.2
GGAUCUUCUCGAUCUAACAAAAAAGACAAAUCUGCCGCAAACCUUGUGAGCAUCGUCGGAUGCAGAGUCGGCAGCCUUCGGUGGCGGGAUAGCGCCAACGUUCUCAACUAUGACACGCAAAACGCGUGCUCCGUUGAAUGGAGUUUAUCAUU [A37G G42C A47U U55G G68U C87G G152U]	≤ -4.2
GGAUCUUCUCGAUCUAACAAAAAAGACAAAUCUGCCGCAAAGCUUGAGAGGGACUUCGGAUGCAGAGGCGGCAGCCUUCGGUGGCGCGCUAGCGCCAACGUUCUCAACUAUGACACGCAAAACGCGUGCUCCGUUCAUUGGAGUUUAUCAUG [A37G C51G A52G U53A A89C G136C A138U]	≤ -4.2
